# Assay results taken from the supplement of paper PMC8728848.
# This is one part of the list.
# B1: OVGAL11 (Ovis aries), AAF64320 (protein)
# chain: MDSLPNPYLQSVSLTVCYMVKIKANLLSAFGKNPELQVDFGTGTGQGGNIPFRFWYCDGMVVMNTFTDGSWQKEEKVLTDAFVPGQPFELQFLVLEKEYQVFVKNKPICQFAHRLPLQSVKMLDVRGDIVLTSVDTL
# Tests used:
# Assay in all cases: glycan array binding signal (z-score within array); higher = stronger binding
# Conditions in all cases: glycan notation: IUPAC condensed, linker removed
# [1] = molecular target: Fuc(a1-2)[GalNAc(a1-3)]Gal(b1-4)GlcNAc(b1-3)[Fuc(a1-2)[GalNAc(a1-3)]Gal(b1-4)GlcNAc(b1-6)]GalNAc
# Procedure, shortened: (§1)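 From the Consortium for Functional Glycomics database, 3228 arrays were curated, keeping only those whose protein sequence was available. Binding is given as a within-array Z-score averaged across arrays sharing a protein sequence and across linkers. Negative Z-scores can be read as non-binding.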
# [2] = molecular target: Fuc(a1-2)[GalNAc(a1-3)]Gal(b1-4)GlcNAc(b1-6)GalNAc
# Procedure, shortened: as §1
# [3] = molecular target: Fuc(a1-2)[GalNAc(a1-3)]Gal(b1-4)[Fuc(a1-3)]GlcNAc
# Procedure, shortened: as §1
# [4] = molecular target: Fuc(a1-2)[GalNAc(a1-3)]Gal(b1-4)[Fuc(a1-3)]GlcNAc(b1-3)GalNAc
# Procedure, shortened: as §1
# [5] = molecular target: Fuc(a1-2)[GalNAc(a1-4)]Gal(b1-4)GlcNAc
# Procedure, shortened: as §1
# [6] = molecular target: Fuc(a1-2)[GalNAc(b1-3)]Gal
# Procedure, shortened: as §1
# Fuc(a1-3)GlcNAc = molecular target: Fuc(a1-3)GlcNAc
# Procedure, shortened: as §1
# [7] = molecular target: Fuc(a1-3)[Gal(b1-4)]Glc6S
# Procedure, shortened: as §1
# [8] = molecular target: Fuc(a1-3)[Gal(b1-4)]GlcNAc
# Procedure, shortened: as §1
# [9] = molecular target: Fuc(a1-3)[Gal(b1-4)]GlcNAc(b1-2)Man
# Procedure, shortened: as §1
# [10] = molecular target: Fuc(a1-3)[Gal(b1-4)]GlcNAc(b1-2)Man(a1-3)[Fuc(a1-3)[Gal(b1-4)]GlcNAc(b1-2)Man(a1-6)]Man(b1-4)GlcNAc(b1-4)GlcNAc
# Procedure, shortened: as §1
# [11] = molecular target: Fuc(a1-3)[Gal(b1-4)]GlcNAc(b1-2)Man(a1-3)[Fuc(a1-3)[Gal(b1-4)]GlcNAc(b1-2)Man(a1-6)]Man(b1-4)GlcNAc(b1-4)[Fuc(a1-6)]GlcNAc
# Procedure, shortened: as §1
# [12] = molecular target: Fuc(a1-3)[Gal(b1-4)]GlcNAc(b1-3)Gal(b1-3)[Fuc(a1-4)]GlcNAc
# Procedure, shortened: as §1
# [13] = molecular target: Fuc(a1-3)[Gal(b1-4)]GlcNAc(b1-3)Gal(b1-4)[Fuc(a1-3)]GlcNAc
# Procedure, shortened: as §1
# [14] = molecular target: Fuc(a1-3)[Gal(b1-4)]GlcNAc(b1-3)Gal(b1-4)[Fuc(a1-3)]GlcNAc(b1-3)Gal(b1-4)[Fuc(a1-3)]GlcNAc
# Procedure, shortened: as §1
# [15] = molecular target: Fuc(a1-3)[Gal(b1-4)]GlcNAc(b1-3)GalNAc
# Procedure, shortened: as §1
# [16] = molecular target: Fuc(a1-3)[Gal(b1-4)]GlcNAc(b1-4)Gal(b1-4)[Fuc(a1-3)]GlcNAc
# Procedure, shortened: as §1
# [17] = molecular target: Fuc(a1-3)[Gal(b1-4)]GlcNAc(b1-4)Gal(b1-4)[Fuc(a1-3)]GlcNAc(b1-4)Gal(b1-4)[Fuc(a1-3)]GlcNAc
# Procedure, shortened: as §1
# [18] = molecular target: Fuc(a1-3)[Gal(b1-4)]GlcNAc(b1-6)GalNAc
# Procedure, shortened: as §1
# [19] = molecular target: Fuc(a1-3)[Gal(b1-4)]GlcNAc(b1-6)[Gal(b1-3)GlcNAc(b1-3)]Gal(b1-4)Glc
# Procedure, shortened: as §1
# [20] = molecular target: Fuc(a1-3)[Gal(b1-4)]GlcNAc6S
# Procedure, shortened: as §1
# [21] = molecular target: Fuc(a1-3)[Gal3S(b1-4)]Glc
# Procedure, shortened: as §1
# [22] = molecular target: Fuc(a1-3)[Gal3S(b1-4)]GlcNAc
# Procedure, shortened: as §1
# [23] = molecular target: Fuc(a1-3)[Gal3S(b1-4)]GlcNAc6S
# Procedure, shortened: as §1
# [24] = molecular target: Fuc(a1-3)[GalNAc(b1-4)]Gal(b1-4)GlcNAc
# Procedure, shortened: as §1
# [25] = molecular target: Fuc(a1-3)[GalNAc(b1-4)]GlcNAc
# Procedure, shortened: as §1
# [26] = molecular target: Fuc(a1-3)[GalNAc(b1-4)]GlcNAc6S
# Procedure, shortened: as §1
# Fuc(a1-4)GlcNAc = molecular target: Fuc(a1-4)GlcNAc
# Procedure, shortened: as §1
# Fuc(b1-3)GlcNAc = molecular target: Fuc(b1-3)GlcNAc
# Procedure, shortened: as §1
# Gal(a1-2)Gal = molecular target: Gal(a1-2)Gal
# Procedure, shortened: as §1
# Gal(a1-3)Gal = molecular target: Gal(a1-3)Gal
# Procedure, shortened: as §1
# Gal(a1-3)Gal(b1-3)Glc = molecular target: Gal(a1-3)Gal(b1-3)Glc
# Procedure, shortened: as §1
# Gal(a1-3)Gal(b1-3)GlcNAc = molecular target: Gal(a1-3)Gal(b1-3)GlcNAc
# Procedure, shortened: as §1
# [27] = molecular target: Gal(a1-3)Gal(b1-3)GlcNAc(b1-2)Man
# Procedure, shortened: as §1
# [28] = molecular target: Gal(a1-3)Gal(b1-3)GlcNAc(b1-2)Man(a1-3)[Gal(a1-3)Gal(b1-3)GlcNAc(b1-2)Man(a1-6)]Man(b1-4)GlcNAc(b1-4)GlcNAc
# Procedure, shortened: as §1
# [29] = molecular target: Gal(a1-3)Gal(b1-3)GlcNAc(b1-3)GalNAc
# Procedure, shortened: as §1
# [30] = molecular target: Gal(a1-3)Gal(b1-3)GlcNAc(b1-6)GalNAc
# Procedure, shortened: as §1
# [31] = molecular target: Gal(a1-3)Gal(b1-3)[Fuc(a1-4)]GlcNAc(b1-2)Man(a1-3)[Gal(a1-3)Gal(b1-3)[Fuc(a1-4)]GlcNAc(b1-2)Man(a1-6)]Man(b1-4)GlcNAc(b1-4)GlcNAc
# Procedure, shortened: as §1
# Gal(a1-3)Gal(b1-4)Glc = molecular target: Gal(a1-3)Gal(b1-4)Glc
# Procedure, shortened: as §1
# Gal(a1-3)Gal(b1-4)GlcNAc = molecular target: Gal(a1-3)Gal(b1-4)GlcNAc
# Procedure, shortened: as §1
# [32] = molecular target: Gal(a1-3)Gal(b1-4)GlcNAc(b1-2)Man
# Procedure, shortened: as §1
# [33] = molecular target: Gal(a1-3)Gal(b1-4)GlcNAc(b1-2)Man(a1-3)[Gal(a1-3)Gal(b1-4)GlcNAc(b1-2)Man(a1-6)]Man(b1-4)GlcNAc(b1-4)GlcNAc
# Procedure, shortened: as §1
# [34] = molecular target: Gal(a1-3)Gal(b1-4)GlcNAc(b1-3)GalNAc
# Procedure, shortened: as §1
# [35] = molecular target: Gal(a1-3)Gal(b1-4)GlcNAc(b1-6)GalNAc
# Procedure, shortened: as §1
# [36] = molecular target: Gal(a1-3)Gal(b1-4)[Fuc(a1-3)]GalNAc
# Procedure, shortened: as §1
binder,measurement,setting,value
B1,glycan array binding signal (z-score),[1],-0.1
same,glycan array binding signal (z-score),[2],-0.109
same,glycan array binding signal (z-score),[3],0.407
same,glycan array binding signal (z-score),[4],-0.067
same,glycan array binding signal (z-score),[5],0.101
same,glycan array binding signal (z-score),[6],-0.029
same,glycan array binding signal (z-score),Fuc(a1-3)GlcNAc,4.51
same,glycan array binding signal (z-score),[7],-0.102
same,glycan array binding signal (z-score),[8],-0.023
same,glycan array binding signal (z-score),[9],-0.096
same,glycan array binding signal (z-score),[10],-0.105
same,glycan array binding signal (z-score),[11],-0.028
same,glycan array binding signal (z-score),[12],-0.104
same,glycan array binding signal (z-score),[13],-0.045
same,glycan array binding signal (z-score),[14],-0.112
same,glycan array binding signal (z-score),[15],-0.106
same,glycan array binding signal (z-score),[16],-0.16
same,glycan array binding signal (z-score),[17],-0.141
same,glycan array binding signal (z-score),[18],0.122
same,glycan array binding signal (z-score),[19],-0.11
same,glycan array binding signal (z-score),[20],-0.049
same,glycan array binding signal (z-score),[21],-0.074
same,glycan array binding signal (z-score),[22],-0.245
same,glycan array binding signal (z-score),[23],-0.101
same,glycan array binding signal (z-score),[24],-0.315
same,glycan array binding signal (z-score),[25],-0.1
same,glycan array binding signal (z-score),[26],-0.085
same,glycan array binding signal (z-score),Fuc(a1-4)GlcNAc,-0.2
same,glycan array binding signal (z-score),Fuc(b1-3)GlcNAc,-0.153
same,glycan array binding signal (z-score),Gal(a1-2)Gal,0.223
same,glycan array binding signal (z-score),Gal(a1-3)Gal,0.099
same,glycan array binding signal (z-score),Gal(a1-3)Gal(b1-3)Glc,-0.398
same,glycan array binding signal (z-score),Gal(a1-3)Gal(b1-3)GlcNAc,-0.267
same,glycan array binding signal (z-score),[27],-0.087
same,glycan array binding signal (z-score),[28],-0.081
same,glycan array binding signal (z-score),[29],-0.12
same,glycan array binding signal (z-score),[30],-0.082
same,glycan array binding signal (z-score),[31],0.059
same,glycan array binding signal (z-score),Gal(a1-3)Gal(b1-4)Glc,-0.097
same,glycan array binding signal (z-score),Gal(a1-3)Gal(b1-4)GlcNAc,-0.086
same,glycan array binding signal (z-score),[32],-0.093
same,glycan array binding signal (z-score),[33],0.112
same,glycan array binding signal (z-score),[34],-0.073
same,glycan array binding signal (z-score),[35],-0.083
same,glycan array binding signal (z-score),[36],-0.14
